In all, about 33,000 sequences were measured (“E-score (-0.5 to 0.5)”: median about -0.021, highest 2% from about 0.32 on). The list shows a part of the results.
Target: T1, Zap1 (UniProt P47043)
T1 sequence: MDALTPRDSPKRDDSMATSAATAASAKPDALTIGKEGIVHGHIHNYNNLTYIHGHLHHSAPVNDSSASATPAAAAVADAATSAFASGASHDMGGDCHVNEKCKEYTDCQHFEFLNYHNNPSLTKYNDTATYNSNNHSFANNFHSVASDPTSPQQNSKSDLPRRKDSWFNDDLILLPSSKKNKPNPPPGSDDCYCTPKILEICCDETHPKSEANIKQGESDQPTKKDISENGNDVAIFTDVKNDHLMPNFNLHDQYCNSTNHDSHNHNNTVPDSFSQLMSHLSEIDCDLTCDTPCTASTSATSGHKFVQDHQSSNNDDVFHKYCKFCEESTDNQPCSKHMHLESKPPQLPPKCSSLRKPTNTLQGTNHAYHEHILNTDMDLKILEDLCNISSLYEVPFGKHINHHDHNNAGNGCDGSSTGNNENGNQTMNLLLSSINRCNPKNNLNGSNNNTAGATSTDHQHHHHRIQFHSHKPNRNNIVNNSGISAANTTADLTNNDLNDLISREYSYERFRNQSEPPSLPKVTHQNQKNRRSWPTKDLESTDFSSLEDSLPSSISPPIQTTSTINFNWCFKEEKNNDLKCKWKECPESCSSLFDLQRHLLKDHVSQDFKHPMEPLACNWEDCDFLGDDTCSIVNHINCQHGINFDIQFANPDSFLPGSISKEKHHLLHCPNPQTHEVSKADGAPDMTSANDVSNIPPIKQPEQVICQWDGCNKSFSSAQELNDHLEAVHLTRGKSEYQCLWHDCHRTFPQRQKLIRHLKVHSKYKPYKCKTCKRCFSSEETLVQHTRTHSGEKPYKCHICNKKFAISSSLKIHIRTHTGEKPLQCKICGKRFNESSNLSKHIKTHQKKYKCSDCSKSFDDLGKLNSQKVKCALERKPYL
Assay: PBM E-score (8-mer binding enrichment) (E-score (-0.5 to 0.5)); higher = stronger / more preferred TF binding; most listed sequences are background and not binding sites
Details: protein concentration: 200 nM; construct: GST-full length
Experimental: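 Universal 'all 10-mer' protein binding microarrays (Agilent AMADID 015681) probed with GST-tagged S. cerevisiae TFs (full-length or DBD) made by in vitro transcription/translation (PURExpress), about 100-200 nM. Bound TF was detected with fluorescent anti-GST. Each ungapped 8-mer (which stands for itself and its reverse complement) is scored by the PBM enrichment score (E-score), a modified Wilcoxon-Mann-Whitney statistic from -0.5 to +0.5, computed with the Universal PBM Analysis Suite. Scale: above 0.35 generally sequence-specific binding.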

Sequence	PBM E-score
ACAAAGCA	0.104
AGCTCACG	-0.192
ACTTAACA	0.01
CGCTACAC	-0.164
ATACCTGC	0.062
ATCGTAAT	0.119
AGCTAATG	-0.157
CCATTCAA	0.0385
CGAGACAA	-0.15
GATGTGCA	-0.177
ATGTTTTC	0.134
ATCAAATA	0.115
ATGACGTA	-0.0713
ATGGTTGC	0.0738
CAAGAACG	0.0457
ATCATCTA	-0.0564
ACCCAGCA	0.0307
ATCCTAAT	0.0542
CACCCAGA	0.199
CCTTGTTC	0.125
ATAGTGAC	0.0407
CATTGGCG	-0.249

Sequence	PBM E-score
GCAGCGAA	-0.137
ATTCTAGG	0.0946
CTACAGAC	-0.0509
AGGAACAG	-0.183
AGATTCAG	-0.0502
CAAAGGGG	0.00785
CCTAGGCC	-0.0276
CGGAGTGA	-0.138
AGCCAGCG	-0.332
ACTCTCCT	-0.264
CAAAGATC	0.0185
AATGTCAG	-0.192
ACTCTCTA	-0.0413
GCCGACGC	-0.188
ACCGGCAA	0.00718
AACAGCCG	-0.0886
CAGATGAA	-0.103
GACGACAC	0.0795
ACAGCATA	-0.164
AGTTTACC	0.0916
GCAGCGCA	-0.24
CTTTATCA	0.0803

Sequence	PBM E-score
AAACGCCC	-0.185
ATGCATCA	0.0512
CACAACTC	0.151
CAAACAAG	-0.108
GCATCTCA	-0.125
ATACAAGG	0.0518
CTCCGGAG	0.114
ACATTGAG	-0.0894
GACTTAGA	-0.303
CAACAAAA	0.17
CACCCTTC	0.135
TTACATAA	0.0316
TCCGCGGA	-0.0609
AGGAAACG	-0.206
CCCGTAAC	0.306
TGAGGCAA	-0.177
ACTCTATG	0.0053
ACGGTCAG	0.0381
ACTGTGAA	0.0644
ACTCGATC	-0.0618
CAAGGCGA	-0.182
CACTTGCA	-0.105

Sequence	PBM E-score
GGTGAGAA	0.0265
TCCAGAAA	-0.0224
CAGTTACG	-0.0217
CTAAGTGA	0.0127
ATGCTATC	-0.0723
GAATTGTC	-0.211
CGACCCAA	0.125
ATCTGAGG	0.094
AGCAGAGG	-0.116
ACGTTCTC	-0.23
CTCCCGCC	-0.206
CGCTTCAC	-0.309
GGGGAACA	-0.0495
ATACCCGA	0.224
AGAGTAGG	-0.0788
ACTCTTGC	0.0703
ATGATAGG	-0.0377
AGTCAAAT	-0.135
AGGGTCCA	0.214
GCATACGC	-0.175

Source: the supplement of paper PMC3334620
